Out of some 220,000 compounds screened, about 16,000 (7.3%) were called active. The inconclusive results got no clear call from the source; some entries with a clear call stand among them for comparison. The call rests on the fitted dose curve; in most records, active means well fitted inhibition curve with a large enough effect (not every such curve was filed as active); inconclusive means small, poorly fitted or top-dose-only effect, or another doubt; inactive means no such curve, though single readings can be large or run the other way. A potency beside an inconclusive call is a rough fit, not a confirmed value.
Biological target: Aldehyde dehydrogenase 1A1 (Homo sapiens) (UniProt P00352)
Test: qHTS Assay for Inhibitors of Aldehyde Dehydrogenase 1 (ALDH1A1)
Details: Purified ALDH1A1, NADH fluorescence, propionaldehyde substrate; series mostly up to 75.3 µM
Potency means the concentration at half of the fitted maximal effect; tags describe the fitted curve by direction and shape.

UniProt P00352, sequence (P00352 whole entry, looked up): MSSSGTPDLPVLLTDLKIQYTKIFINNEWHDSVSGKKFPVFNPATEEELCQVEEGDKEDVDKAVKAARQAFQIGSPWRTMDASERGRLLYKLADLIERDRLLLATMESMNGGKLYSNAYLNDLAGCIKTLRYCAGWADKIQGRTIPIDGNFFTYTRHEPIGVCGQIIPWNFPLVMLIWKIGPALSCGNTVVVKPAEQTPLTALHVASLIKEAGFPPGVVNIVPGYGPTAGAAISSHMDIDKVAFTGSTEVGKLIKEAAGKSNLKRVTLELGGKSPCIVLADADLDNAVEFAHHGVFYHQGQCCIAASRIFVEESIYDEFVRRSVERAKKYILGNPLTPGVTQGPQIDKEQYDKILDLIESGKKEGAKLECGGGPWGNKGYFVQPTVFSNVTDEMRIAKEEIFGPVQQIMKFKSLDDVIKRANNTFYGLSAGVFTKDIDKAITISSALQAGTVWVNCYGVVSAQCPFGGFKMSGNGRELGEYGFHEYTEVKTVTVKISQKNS

Potency, inactive:
C/C(=N\NC(=O)c1ccc(NS(=O)(=O)c2cccs2)cc1)c1ccc(Cl)cc1, OCCSc1nc(N2CCOCC2)nc(N2CCOCC2)n1, Cc1ccc(-c2ccc(CCC(=O)O)n2NC(=O)c2cccs2)cc1, CCN(CC)c1ccc(NC(=O)CN2CCN(c3ccccc3F)CC2)cc1, CN(C)S(=O)(=O)c1ccc(NC(=O)c2ccc(Br)o2)cc1, COc1c(Cl)cnn(-c2ccc(Cl)c(Cl)c2)c1=O, O=C(C(=O)N1CCc2ccccc2C1)c1cn(CC(=O)N2CCOCC2)c2ccccc12, CN1CCC(NC(=O)c2ccncc2)CC1, O=C(NCCOc1ccccc1)c1ccc2c(c1)OCO2, Cn1cc(CN(CCCN2CCOCC2)C(=S)Nc2cccc(Cl)c2)c2ccccc21, O=C(NCCN1CCCCC1)c1ccc(Cc2nc3ccccc3[nH]2)cc1, Cc1noc(C)c1C(=O)N1CCC2(CCN(Cc3ccncc3)CC2)CC1, COCCN=C1OC(=O)N2C(=O)C3=C4C(C[C@H]5C(=O)N(CC(=O)OC)C(=O)[C@H]5[C@H]4[C@@]12Cc1ccccc1)[C@H]1C(=O)N(CC(=O)OC)C(=O)[C@H]1[C@H]3C (stereo partly specified)

Potency, active:
CSCCOC(=O)C1=C(C)Nc2ccc(C)cc2S1 14.1 µM, COc1ccc(Oc2ncc3ncc(=O)n(CCc4ccccc4)c3n2)cc1 0.891 µM, Cn1cccc1Cc1nnc(SCC(=O)NC2CCCCC2)n1-c1ccc(F)cc1 20 µM, COc1ccc(C(=O)NC(=S)NCc2ccc(-c3nc4ccccc4o3)cc2)cc1OC 5.01 µM, CCOC(=O)c1ccc(S(=O)(=O)Nc2cc(C(=O)O)ccc2Cl)cc1 3.16 µM, CSC1=NC(C)(C)C=C(/C=C/c2ccc(Cl)cc2)N1 20 µM

Potency, inconclusive:
O=C(COC(=O)C12CC3CC(CC(C3)C1)C2)Nc1ccc([N+](=O)[O-])cc1Cl 39.8 µM [inhibitor, single point], CCCCOc1ccc(NC(=O)CSCC(=O)OCC)cc1 17.8 µM [inhibitor, partial curve], Clc1ccc(OCc2nnc3n2N=C(c2ccc4c(c2)OCCO4)CS3)c(Cl)c1 15.8 µM [inhibitor, partial curve], Cc1cc(C)n(-c2c(F)c(F)c(COC(=O)c3ccccc3)c(F)c2F)n1 39.8 µM [inhibitor, single point], C=CCNC(=O)c1onc(CSc2cc(C)ccc2C)c1C(=O)O 4.47 µM [inhibitor, partial curve], Cc1ccc(C(=O)c2cc3ccccc3o2)cc1[N+](=O)[O-] 39.8 µM [inhibitor, single point], CCCCNC(=S)NNC(=O)c1cc(C)on1 31.6 µM [inhibitor, partial curve], Cc1csc(NC(=O)c2c(O)c3c(n(CC(C)C)c2=O)CCCC3)n1 3.16 µM [inhibitor, single point], c1csc(-c2nn3c(Cn4cnc5ccccc54)nnc3s2)c1 7.94 µM [inhibitor, full curve], COc1ccc(S(=O)(=O)n2nc(OC(=O)c3ccccc3)cc2N)cc1 1.78 µM [inhibitor, full curve], Nc1nc2c(s1)CCc1c-2cnn1-c1ccccc1 25.1 µM [inhibitor, partial curve], Cc1ccc(N=Nc2c(O)[nH]c3ccc(F)cc23)cc1 37.7 µM [inhibitor, single point], COc1ccc2[nH]c(-c3ccccc3)cc(=O)c2c1 50.1 µM [inhibitor, partial curve], CC1CN(C(=O)c2ccc(COc3ccc4ccccc4c3)o2)CC(C)O1 (stereo unspecified) 35.5 µM [inhibitor, single point], CCC(C)(C)NC(=O)C(c1ccc(OC)cc1)N(Cc1cccs1)C(=O)CCC(=O)Nc1cc(C)on1 (stereo unspecified) 31.6 µM [inhibitor, single point], Cc1scc(C(=O)NNC(=S)NC(C)c2ccccc2)c1C (stereo unspecified) 17.8 µM [inhibitor, single point], N#Cc1nc(Cc2ccccc2)oc1N1CCN(c2cccc(Cl)c2)CC1 7.08 µM [inhibitor, single point], C=CCN(Cc1nc(-c2ccc(OC)c(OC)c2)oc1C)C1CCS(=O)(=O)C1 (stereo unspecified) 39.8 µM [inhibitor, single point], Cn1cc(-c2nc3cnc(N4CCNCC4)nc3n(C3CC3)c2=O)c2ccccc21 22.4 µM [inhibitor, partial curve], Fc1cc(F)cc(NC(=S)N2CCN(c3ncccn3)CC2)c1 15.8 µM [inhibitor, partial curve, poor fit], CC1CCc2cc(F)ccc2N1C(=O)c1cc2nc(-c3ccco3)cc(C(F)(F)F)n2n1 (stereo unspecified) 35.5 µM [inhibitor, single point], CSc1cc(/C=N/O)c(SC)s1 39.8 µM [inhibitor, single point], CC(C)CCNC(=O)CCc1nnc(Cc2c[nH]c3ccccc23)o1 39.8 µM [inhibitor, single point], COCCN1C=C(C(=O)OC)C(c2ccc(OC)c(OC)c2)C(C(=O)OC)=C1 39.8 µM [inhibitor, single point], O=C(NCc1ccc2c(c1)OCO2)C1CC(=O)N(C2CCCC2)C1 (stereo unspecified) 39.8 µM [inhibitor, single point], COC(=O)C(Cc1ccccc1)NC(=O)COc1ccc(C(C)(C)C)cc1 (stereo unspecified) 39.8 µM [inhibitor, single point], O=C(Nc1nccs1)c1cc2sccc2n1Cc1ccc(Cl)cc1 39.8 µM [inhibitor, single point]

Source: PubChem BioAssay AID1030 (National Center for Advancing Translational Sciences (NCATS), 2008)
